Out of some 110,000 compounds screened, about 230 (0.21%) showed an effect of 50% or more. The list shows a part of the results.
target: DPAP1 (Plasmodium falciparum, UniProt Q8IIJ9); assay: primary screen, percent inhibition; read by cleavage of a fluorogenic dipeptide substrate; higher = more effect of the substance; set-up: species or system P. falciparum D10 trophozoite lysates; single well
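Further: 30 min substrate incubation versus DMSO and 10 µM JCP410 controls.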

DPAP1, sequence (Q8IIJ9 whole entry, looked up): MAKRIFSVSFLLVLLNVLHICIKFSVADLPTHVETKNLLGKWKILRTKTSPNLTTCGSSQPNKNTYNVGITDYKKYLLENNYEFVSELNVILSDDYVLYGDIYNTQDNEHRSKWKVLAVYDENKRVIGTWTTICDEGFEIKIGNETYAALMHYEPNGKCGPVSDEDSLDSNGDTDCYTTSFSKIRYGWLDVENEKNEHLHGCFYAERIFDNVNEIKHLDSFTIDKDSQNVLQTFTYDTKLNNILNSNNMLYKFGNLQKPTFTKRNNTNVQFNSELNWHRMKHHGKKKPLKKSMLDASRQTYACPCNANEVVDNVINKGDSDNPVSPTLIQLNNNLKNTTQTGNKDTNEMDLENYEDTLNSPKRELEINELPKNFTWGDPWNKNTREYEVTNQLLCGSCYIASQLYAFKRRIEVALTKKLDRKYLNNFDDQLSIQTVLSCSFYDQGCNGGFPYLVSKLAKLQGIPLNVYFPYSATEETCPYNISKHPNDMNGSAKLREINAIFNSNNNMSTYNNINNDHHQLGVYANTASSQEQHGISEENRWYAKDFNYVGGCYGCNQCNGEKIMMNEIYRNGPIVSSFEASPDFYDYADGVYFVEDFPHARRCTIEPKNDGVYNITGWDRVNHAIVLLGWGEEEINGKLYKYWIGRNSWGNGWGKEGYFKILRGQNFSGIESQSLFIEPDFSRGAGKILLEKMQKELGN

| SMILES | % Inhibition @ 10 uM |
| --- | --- |
| O=C(CSc1nc(-c2ccc(F)cc2)cc(C(F)(F)F)n1)NCC1CCCO1 (stereo not shown) | -0.318% |
| O=C(NCc1cccs1)c1cnn2c1NC(c1ccc(Br)cc1)CC2C(F)(F)F (stereo not shown) | 0.161% |
| CC1CCCC(NC(=O)c2ccc3snnc3c2)C1C (stereo not shown) | 3.05% |
| CN(C)c1ccc(NC(=O)c2cncc(Br)c2)cc1 | -4.49% |
| Cc1ccc(NS(=O)(=O)c2ccc(F)cc2)c(C)c1 | -7.02% |
| COc1ccc(C2CC3(CC(C)(C)NC(=S)N3)Oc3cc(O)cc(C)c32)cc1OC (stereo not shown) | -2.5% |
| CC(C)(C)OC(=O)N1CCC(c2cc(O)n3nc(-c4ccc(Cl)cc4)cc3n2)CC1 | -2.83% |
| CN1CCN(C(=O)C2CCN(c3ncnc4c3nc3n4CCCCC3)CC2)CC1 | -4.77% |
| Cc1c(C(c2ccco2)c2c(C)n(C)n(-c3ccccc3)c2=O)c(=O)n(-c2ccccc2)n1C | 3.83% |
| COc1ccc(OC)c(S(=O)(=O)N2CCN(c3ncccn3)CC2)c1 | 1.67% |
| Cc1ccccc1OCCCCCCN1CCNCC1 | -0.473% |
| Cc1ccc(C(=O)Nc2cccc(C(F)(F)F)c2)cc1[N+](=O)[O-] | -0.771% |
| CCc1ccc(-n2nc(C)c3c(C)cc(=O)n(CC(=O)NCc4ccc5c(c4)OCO5)c32)cc1 | 0.586% |
| CCCCNC(=O)C1CCC(CNS(=O)(=O)c2ccccc2)CC1 (stereo not shown) | 3.93% |
| COc1ccccc1OCCSc1n[nH]c2nc3ccccc3n12 | -3.5% |
| CC1=C(C(=O)Nc2ccccc2F)C(c2ccccc2Cl)C2=C(O)CCCC2=N1 (stereo not shown) | 5.05% |
| O=C(COc1ccccc1)NCCc1cccc(Cl)c1 | -0.95% |
| CCN(CC)c1ccc(NC(=O)c2ccc(C)c(C)c2)cc1 | -3.92% |
| COc1ccccc1N1CCN(CCCCN2C(=O)C3CCCN3C2=O)CC1 (stereo not shown) | 3.04% |
| OCC1CCCN1Cc1c(Cl)cccc1Cl (stereo not shown) | -3.15% |
| COc1ccccc1NC(=O)CN(c1ccccc1OC)S(=O)(=O)c1ccccc1 | 2.45% |
| N#CC1=C(N)OC2=C(C(=O)CCC2)C1c1ccc(F)c(F)c1 (stereo not shown) | 2.36% |
| CC1(NC(=S)N2CCOCC2)CCS(=O)(=O)C1 (stereo not shown) | 5.75% |
| O=C(CCCn1c(=O)c2cccn2c2cccnc21)NCC1CCCO1 (stereo not shown) | 8.1% |
| CCS(=O)(=O)N1CCC(C(=O)NCCOC)CC1 | 3.79% |

| SMILES | % Inhibition @ 10 uM |
| --- | --- |
| O=C1/C(=C/c2ccc(Br)cc2)N=C(c2ccccc2)N1c1ccccc1 | -8.99% |
| O=C1C2=C(c3cc(O)ccc3O)CCCN2C(=O)CN1Cc1ccccc1 | 1.91% |
| CCC(NC(=O)Nc1ccccc1)c1ccccc1 (stereo not shown) | -0.744% |
| CN1C(=O)C(=N)c2c3ccccc3c(O)c3c(Br)ccc1c23 | -7.39% |
| CCOC(=O)N1CCN(C(c2ccncc2)c2c(C)[nH]c3ccccc23)CC1 (stereo not shown) | 2.95% |
| CCOC(=O)c1sc2nccc3c2c1N=CN3c1ccccc1 | -0.687% |
| O=C(N/C(=C\c1ccccc1)C(=O)N1CCN(Cc2ccccc2)CC1)c1ccccc1 | -2.78% |
| N#Cc1c(NC(=O)CSc2nc(N)cc(O)n2)sc2c1CCCCCC2 | 4.85% |
| NCc1oc(-c2ccccc2)cc1C(=O)O | -2.5% |
| CCOC(=O)N1CCC(NCc2ccc(Br)cc2)CC1 | 1.74% |
| Cc1ccnc(NS(=O)(=O)c2ccc(NC(=O)c3ccc(Cl)cc3Cl)cc2)n1 | 7.5% |
| O=C(Nc1cc(Cl)ccc1Cl)C(c1ccccc1)c1ccccc1 | -2.81% |
| COc1ccc(C)cc1S(=O)(=O)N1CCN=C1c1ccccc1 | -0.643% |
| CCOc1cc2c(c([N+](=O)[O-])c1)NC(c1ccccc1)C1CC=CC21 (stereo not shown) | -6.7% |
| COc1ccc(CNc2nc3ccccc3n2C)cc1 | 2.16% |
| Fc1cccc(CN2CCN(C/C=C/c3ccccc3)CC2)c1 | 2.47% |
| COc1ccccc1OCCn1c(SCC(N)=O)nc2ccccc21 | -6.22% |
| CCCOC(=O)c1ccc(OCC(O)Cn2cnc3ccccc32)cc1 (stereo not shown) | -1.06% |
| Cc1cccc(NC(=O)/C=C/c2cccc([N+](=O)[O-])c2)c1 | 3% |
| Cc1c(CNCCCc2ccccc2)c(C(=O)O)c(C)n1Cc1ccccc1 | -0.23% |
| CNS(=O)(=O)c1cn(CC(=O)NCCN2CCCCCC2)cc1S(=O)(=O)NC | -8.08% |
| Cc1ccc(Cl)cc1NC(=O)c1ccc(F)cc1 | 1.91% |
| Cc1ccc(C(=O)Nc2c(C(=O)NCc3ccccc3)cnn2-c2ccccc2)cc1 | 2.26% |
| COc1ccc(S(=O)(=O)N2CCSC2c2ccccc2)cc1 (stereo not shown) | 3.19% |

— PMC6919601, “Identification of Plasmodium dipeptidyl aminopeptidase allosteric inhibitors by high throughput screening” (PLoS ONE, 2019)
